PubChem BioAssay (NCI)
Values joined by “and” are separate entries in the source; they are usually repeats but may differ in a detail not shown here. Equal entries are not always repeated.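 Five concentrations, 48 hours, 96-well plates. GI50 is the concentration that inhibits growth by half. TGI denotes the concentration required for complete inhibition of growth.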

Each compound was assayed on NCI-H322M lung (assay: NCI-60 cell line screen, 48 h).
Compound `C=C(C)CNC(=S)N(N)c1ccc2ccccc2c1` has a TGI greater than 100 µM.
`C[C@@H]1COCCN1c1cc(C2(O)C[C@H]3CC[C@@H](C2)O3)c2cnn(-c3ccn[nH]3)c2n1` (some centres undefined) gave a GI50 of 0.0315 µM and a TGI of 0.678 µM.
For `S=c1[nH]c2ccc(I)cc2c(=S)n1Cc1ccccc1`, the TGI was 29 µM.
`Nc1ncc(-c2cccc(S(N)(=O)=O)c2)c2scc(-c3ccc(F)c(Cl)c3)c12` was tested, and the GI50 was 8.8 µM and the TGI was greater than 25 µM.
For `N#CC(C#N)=C1C(=O)NC(N)=C1C#N`, the TGI was greater than 100 µM.
Compound `CCOC(=O)[C@@H]1ON2OC(OC3CCCC3(c3ccccc3)c3ccccc3)C(OC(C)=O)[C@H]3OC(=O)[C@@H]1C32` (some centres undefined) has a TGI greater than 100 µM.
With `COC1OC2=CCC3C(=O)NC(=O)C3C2[C@H](OCc2ccccc2)C1OCc1ccccc1` (some centres undefined) the TGI was 30.4 µM.
`CCC(NC1=NCCO1)c1cccs1` (centres undefined) gave a TGI of 32.4 µM.
`COc1ccc(C[C@H](N)C(=O)N2C[C@@H](CO)C[C@@H](n3ccc(=O)[nH]c3=O)C2)cc1` gave a TGI greater than 100 µM.
`Cc1c([N+](=O)[O-])oc2ccc3ccccc3c12` was tested, and the TGI was greater than 100 µM.
In the case of `CCOc1ccc2c(c1)c(=O)c1c(NCCN(CC)CC)ccc3nnn2c31`, the TGI is reported as 33.3 µM.
Compound `COc1ccc(Cn2cc3c(c2-c2cc(OC)c(OC)c(OC)c2)CCc2cnoc2-3)cc1` has a GI50 of 0.515 µM and a TGI greater than 100 µM.
`COc1cc2c3c(n(C)c(=O)c2cc1OC)-c1cc2c(cc1/C3=C\CCNCCCN)OCO2` gave a GI50 of 2.2 µM and a TGI of 12 µM.
Compound `Cc1cccc2c(O)cc(=O)oc12` has a TGI greater than 100 µM.
Work on `O=C1OCC2=C1C(c1ccccc1)c1cc3c(cc1N2CCO)OCCO3` (centres undefined) yielded a GI50 of 2.52 µM and a TGI greater than 50 µM.
With `Cc1ccc(N=C2C(=Nc3ccc(C)cc3)N(c3ccc(C)cc3)C(=S)N2C(=O)c2ccccc2)cc1` the TGI was greater than 100 µM.
`C=CCn1c(-c2ccc([N+](=O)[O-])cc2)csc1=N` was tested, and the TGI was greater than 100 µM.
`Cn1c(O)c(C=Nc2ccccc2Cl)c(=O)n(C)c1=O` gave a TGI greater than 100 µM.
`N#CC1C=Cc2c(ccc3ccccc23)N1C(=O)c1ccccc1` (centres undefined) showed a GI50 of 0.474 µM and a TGI of 71.3 µM.
`CC(C)(C)c1ccc(NS(=O)(=O)c2ccc3nc(NC(=O)c4cnccn4)[nH]c3c2)cc1` gave a GI50 of 3.82 µM and a TGI of 15.7 µM.
`Cc1ccc([C@]2(C)CC[C@H](C)/C2=C\Br)c(O)c1` was tested, and the GI50 was 7.32 µM and the TGI was 20.3 µM.
In the case of `Cc1cn(S(=O)(=O)c2ccccc2)c2c(OCc3ccccc3)cc(NS(C)(=O)=O)cc12`, the TGI is reported as greater than 100 µM.
In the case of `CSc1scc2c1/C(=N/NC(N)=O)CCC2`, the TGI is reported as greater than 100 µM.
`CC1(C)N=C(c2ccccn2)C(c2ccccn2)=NC1(C)C` was tested, and the TGI was greater than 100 µM.
For `NC(N)=NCCCC(NC(=O)OCCCCn1ccc(N)nc1=O)C(=O)O` (centres undefined), the TGI was greater than 100 µM.
In the case of `O=c1c2ccccc2nc(N/N=C/c2ccccc2O)n1-c1ccccc1`, the TGI is reported as greater than 100 µM.
`NNC(=O)C(=O)N/N=C(\CCC(=O)Nc1ccc(Cl)cc1)Cc1nc2ccccc2s1` gave a TGI greater than 100 µM.
`OC1C[C@H](c2ccccc2)C2(C(O)c3ccccc3C2O)[C@@H](c2ccccc2)C1` (some centres undefined) gave a TGI greater than 100 µM.
`C=CC(COC(c1ccccc1)(c1ccccc1)c1ccccc1)N(CC)CC` (centres undefined) was tested, and the GI50 was 10.9 µM and the TGI was 23.8 µM.
`N#CCC(=O)N1CCCCCCC1` was tested, and the TGI was greater than 100 µM.
For `COc1ccc2ccc3oc([N+](=O)[O-])cc3c2c1`, the GI50 was 0.868 µM and the TGI was 5.52 µM.
Work on `O=C(NC(=O)c1ccccc1[N+](=O)[O-])Nc1ccc(Oc2ncc(Cl)cn2)c(C(F)(F)F)c1` yielded a TGI greater than 83.8 µM.
`C=C1CN(C2=NCCO2)C1` gave a TGI greater than 100 µM.
With `CC(=O)[CH-]C(=O)c1ccccc1.CC(=O)[CH-]C(=O)c1ccccc1.CC[O-].O=C1c2ccccc2C(=O)c2c1ccc(O)c2[O-].[Ti+4]` the TGI was greater than 100 µM.
With `Cc1ccc(-c2cc(O)c(-c3ccc(C)cc3C)cc2O)c(C)c1` the GI50 was 19 µM and the TGI was 55.4 µM.
`C/C=C(/C)C(=O)O[C@H]1[C@H](O)CC(c2ccc3c(c2O)C(O)=C2C(=O)C4(OC)C(O)=C(C(N)=O)C(=O)[C@H](CC(=O)c5ccccc5O)C4CC2[C@@]3(C)OC)O[C@@H]1C` (some centres undefined) was tested, and the TGI was 5.51 µM and 3.17 µM.
Compound `O=C1C(Cl)=C(Nc2cccc(O)c2)C(=O)N1Cc1ccc(Cl)cc1Cl` has a GI50 of 11.1 µM and a TGI of 23.7 µM.
`OCCN1CCN(CC/C=C2/c3ccccc3Sc3ccc(Cl)cc32)CC1` gave a TGI of 30.2 µM.
`COc1ccccc1C(=O)N(C)c1ccc(Cl)c(C(=O)OC(C)C)c1` gave a TGI greater than 100 µM.
Work on `c1ccc(CN2CCN3CCN(CC2)CCN(Cc2ccccc2)CC3)cc1` yielded a TGI of 37.3 µM.
Compound `O=C(O)c1cc2ccccc2c2c1C(=O)c1ccccc1-2` has a TGI greater than 100 µM.
`NC(CSSCC(N)Cc1ccccc1)Cc1ccccc1` (centres undefined) gave a TGI greater than 100 µM.
`Cc1sc2nc3n(c(=O)c2c1C)N=CN(c1ccc(F)cc1)C3` gave a TGI greater than 100 µM.
`C[C@]12CCC(=O)C=C1CC[C@@H]1C2CC[C@]2(C)c3nn(-c4ccccc4)nc3CC12` (some centres undefined) gave a TGI greater than 100 µM.
Compound `C/C=N\N1C(=O)c2ccccc2C1=O` has a TGI greater than 100 µM.
`Cc1cccc(Cc2cnc(NC(=O)CCc3ccc(C)o3)s2)c1` was tested, and the GI50 was 1.18 µM and the TGI was greater than 100 µM.
With `CN1C/C(=C\C=C\c2ccccc2)C(=O)/C(=C/C=C/c2ccccc2)C1` the TGI was greater than 100 µM.
`CN(C)CCCn1c(-c2nonc2N)nc2cnccc21` was tested, and the GI50 was greater than 25 µM and the TGI was greater than 25 µM.
In the case of `O=c1ccc2nc(-c3ccccn3)nn(-c3ccccc3)c-2c1`, the GI50 is reported as 16.3 µM and the TGI is reported as 30.2 µM.
